# Among all 310,000 compounds or so, about 2,200 (0.71%) showed an effect of 50% or more. The effect is printed as a negative number. The list shows a part of the results.
# Target: human ether-à-go-go-related gene (hERG) potassium channel (human, UniProt Q12809)
# Assay: primary screen, population patch clamp on CHO cells stably expressing hERG
# Sequence of human ether-à-go-go-related gene (hERG) potassium channel (Q12809 whole entry, looked up): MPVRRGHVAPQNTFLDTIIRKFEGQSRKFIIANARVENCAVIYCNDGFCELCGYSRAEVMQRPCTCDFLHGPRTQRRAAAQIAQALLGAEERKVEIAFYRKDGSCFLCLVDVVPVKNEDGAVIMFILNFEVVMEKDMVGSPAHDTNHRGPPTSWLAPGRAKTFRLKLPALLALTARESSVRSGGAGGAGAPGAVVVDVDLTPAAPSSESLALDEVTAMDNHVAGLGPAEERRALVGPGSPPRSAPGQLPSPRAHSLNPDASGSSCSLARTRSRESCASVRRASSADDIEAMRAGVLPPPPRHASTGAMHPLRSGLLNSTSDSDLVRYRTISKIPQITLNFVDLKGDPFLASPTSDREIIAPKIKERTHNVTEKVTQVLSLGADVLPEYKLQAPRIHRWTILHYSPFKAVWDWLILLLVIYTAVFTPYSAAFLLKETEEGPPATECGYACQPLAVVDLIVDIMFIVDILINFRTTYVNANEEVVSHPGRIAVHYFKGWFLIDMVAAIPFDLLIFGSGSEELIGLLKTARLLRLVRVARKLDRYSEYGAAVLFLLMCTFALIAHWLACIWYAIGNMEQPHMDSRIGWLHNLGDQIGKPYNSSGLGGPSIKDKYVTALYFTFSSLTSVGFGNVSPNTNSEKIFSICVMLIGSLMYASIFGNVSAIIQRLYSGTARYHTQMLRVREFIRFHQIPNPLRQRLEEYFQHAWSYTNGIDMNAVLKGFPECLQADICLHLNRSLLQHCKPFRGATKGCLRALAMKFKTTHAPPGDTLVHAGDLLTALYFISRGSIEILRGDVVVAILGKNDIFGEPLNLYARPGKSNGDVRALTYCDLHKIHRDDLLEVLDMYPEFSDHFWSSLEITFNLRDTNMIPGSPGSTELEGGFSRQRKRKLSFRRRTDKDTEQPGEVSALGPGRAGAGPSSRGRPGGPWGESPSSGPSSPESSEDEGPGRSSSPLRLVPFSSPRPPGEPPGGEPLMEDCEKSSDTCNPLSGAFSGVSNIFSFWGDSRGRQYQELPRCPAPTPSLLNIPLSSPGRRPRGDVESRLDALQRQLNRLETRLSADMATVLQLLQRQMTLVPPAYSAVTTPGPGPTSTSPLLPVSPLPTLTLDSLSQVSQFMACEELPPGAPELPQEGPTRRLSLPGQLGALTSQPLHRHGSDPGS
row,SMILES,"hERG current change (%, negative = inhibition) at 1uM"
1,CSc1cccc(NC(=O)c2ccc(Cl)nc2)c1,8.65%
2,O=C(CCC(=O)Nc1ccccc1)NNS(=O)(=O)c1ccccc1[N+](=O)[O-],12.2%
3,COc1cc(CN(C)CC(=O)c2[nH]c(C)c(C(C)=O)c2C)ccc1OC(F)F,-4.46%
4,CN(Cc1ccc(Cl)cc1)C(=O)c1ccc2ccccc2n1,-1.85%
5,COCCCNC(=O)C1CCCN(C(=O)Nc2ccc(OC)cc2)C1 (centres unmarked),-4.48%
6,COc1ccccc1N1CCN(C(=O)CC2NC3CCCCC3NC2=O)CC1 (centres unmarked),-1.28%
7,COc1cc2c(cc1OC)C(c1cccc(OC)c1OC)CC(=O)N2 (centres unmarked),-12.7%
8,CN1CCN(C2=Nc3cc(F)ccc3Cc3ccccc32)CC1,-4.57%
9,O=C1CCN(Cc2ccccc2)CCN1[C@H](COc1ccccc1)c1ccccc1,2.66%
10,CC(=O)Nc1ccc(SCC(=O)N(CCC#N)c2ccc(C)cc2)cc1,-9.84%
11,CC(=O)Oc1oc(-c2ccccc2)nc1C=Nc1ccccc1,10.1%
12,O=C(COc1ccc(S(=O)(=O)N2CCOCC2)cc1)N1CCN(c2ccccc2)CC1,13.5%
13,CCc1ccc(S(=O)(=O)NCc2csc(-c3cccnc3)n2)s1,9.17%
14,CC1CN(C2CCN(S(=O)(=O)c3ccccc3)CC2)CC(C)O1 (centres unmarked),4.56%
15,O=C(OCC(=O)N1CCCCC1)c1ccc2c(c1)C(=O)N(Cc1ccco1)C2=O,-6.09%
16,Cn1cc(Br)c(C(=O)NC2CCCCC2)n1,-1.04%
17,CCCN(CCC)Cc1c(C(=O)N/N=C/c2cccs2)nnn1-c1nonc1N,2.55%
18,CSc1ccc(/C=N/NC(=O)CN2CCN(Cc3ccccc3)CC2)cc1,-60%
19,CCOc1ccc(S(=O)(=O)NCCC(=O)NCC(c2ccco2)N2CCCCC2)cc1 (centres unmarked),7.47%

row,SMILES,"hERG current change (%, negative = inhibition) at 1uM"
1,Cc1ccc(S(=O)(=O)CCC(=O)OCC(=O)NC(=O)c2ccccc2)cc1,19.8%
2,COc1ccccc1N1CCN(C(c2ccccc2Cl)c2nnnn2C(C)(C)C)CC1.Cl (centres unmarked),14.1%
3,CC(C)n1nc(C(=O)Nc2ccccc2N2CCOCC2)c2ccccc2c1=O,-6.47%
4,COc1cccc2cc(-c3nnc(SCC(=O)Nc4cc(C(F)(F)F)ccc4Cl)n3N)oc12,13.4%
5,O=C(c1ccc(=O)[nH]c1)N1CCN(S(=O)(=O)c2ccccc2)CC1,7.35%
6,CC1CCN(S(=O)(=O)c2cccc3cccnc23)CC1,12.9%
7,CCC(=O)N1CCN=C1SCc1ccc(F)cc1,4.87%
8,CC(=O)NCc1ccc(S(=O)(=O)N2CCN(c3ccccn3)CC2)cc1,15.3%
9,Cc1ccc(S(=O)(=O)N2CCN(C(=O)c3cc4c(C)nn(-c5ccccc5)c4s3)CC2)cc1,-6.86%
10,C=CCN(c1ccccc1)S(=O)(=O)c1cccc(C(=O)OCC(=O)NC2CC2)c1,10.4%
11,O=CNC(Cc1ccccc1)C(=O)O (centres unmarked),3.73%
12,COc1ccc(CN(C)C(C)C(=O)Nc2cccc3ccccc23)cc1 (centres unmarked),11.2%
13,O=C(Nc1ccc(Oc2ccc(NC(=O)c3ccco3)c(NC(=O)c3ccco3)c2)cc1)c1ccco1,8.51%
14,C=CCOn1c(=O)c(-c2ccc(C)cc2)[n+]([O-])c2ccccc21,16.2%
15,Nc1ccc(Br)cc1C(=O)c1ccccc1,20%
16,Cl.N=c1n(CCCOc2ccc(F)cc2)c2ccccc2n1CC(N)=O,-4.09%
17,N#C/C(=C\c1ccccc1)C(=O)OCC(=O)N1CCCC1,8.82%
18,Cc1ccc2cc(C(c3nnnn3Cc3ccccc3)N3CCc4ccccc43)c(=O)[nH]c2c1 (centres unmarked),0.52%
19,Cc1ccccc1C(=O)NC1CCS(=O)(=O)C1 (centres unmarked),11.4%

row,SMILES,"hERG current change (%, negative = inhibition) at 1uM"
1,O=C(c1ccc(CNc2c(N3CCCC3)c(=O)c2=O)cc1)N1CCc2ccccc2C1,-3.76%
2,Cn1ccc(C(=O)N/N=C/c2ccccc2[N+](=O)[O-])n1,10.7%
3,COc1cccc(-c2noc(C(C)n3nc(C)c([N+](=O)[O-])c3C)n2)c1 (centres unmarked),7.86%
4,COC(=O)c1cnc2c(c(C)nn2C)c1OC,10.8%
5,COc1ccc(S(=O)(=O)N2CCOCC2)cc1NS(=O)(=O)/C=C/c1ccccc1,10.8%
6,CCOC(=O)Cc1csc(NC(=O)c2ccncc2)n1,6.06%
7,CCN(CC(=O)Nc1ccc(NC(C)=O)cc1)C(=O)/C=C/c1cccs1,6.99%
8,CCC(=O)N(Cc1cc(=O)[nH]c2ccccc12)C1CCCCC1,-0.812%
9,Cc1ccccc1C(=O)NCC(=O)OC(C)C(=O)NC(C)CCc1ccccc1 (centres unmarked),12.5%
10,CCCN(CCC)S(=O)(=O)c1ccc(NC(=O)c2cc(C(=O)OC)cc([N+](=O)[O-])c2)cc1,16.7%
11,O=C(/C=C/c1ccco1)NC(=S)Nc1nc(-c2ccc(Cl)cc2)cs1,10.2%
12,Cc1ccc(C)c(N(CC(=O)NC(C)C)C(=O)CCC(=O)Nc2ccccn2)c1,10.4%
13,Cc1cc(C)n2nc(SCC(=O)NC3CCCCC3)nc2n1,11.3%
14,Cc1nc2cc(C(=O)N3CCN(C)CC3)ccc2n1C,13.6%
15,Cc1ccn2cc(C(=O)Nc3ccccc3N3CCOCC3)nc2c1,-4.14%
16,COc1ccc(C)cc1Nc1n[n+](-c2ccccc2)c(-c2cc([N+](=O)[O-])cc(OC)c2O)s1.[Cl-],13%
17,CCOc1ccccc1NC(=O)C(=O)NCCC1=CCCCC1,9.84%
18,COc1ccc(Cl)cc1C(=O)CSc1nnnn1C,14.8%

# Reference: PMC4336329 (PLoS ONE, 2015)
